Measurements reported in paper PMC4336329 (PLoS ONE, 2015).
In all, about 310,000 compounds went through this assay and about 2,200 (0.71%) showed an effect of 50% or more. Effects have a minus sign here. The list shows a part of the results.

Target: human ether-à-go-go-related gene (hERG) potassium channel (human, UniProt Q12809)
Assay: primary screen, population patch clamp on CHO cells stably expressing hERG

human ether-à-go-go-related gene (hERG) potassium channel, sequence (Q12809 whole entry, looked up): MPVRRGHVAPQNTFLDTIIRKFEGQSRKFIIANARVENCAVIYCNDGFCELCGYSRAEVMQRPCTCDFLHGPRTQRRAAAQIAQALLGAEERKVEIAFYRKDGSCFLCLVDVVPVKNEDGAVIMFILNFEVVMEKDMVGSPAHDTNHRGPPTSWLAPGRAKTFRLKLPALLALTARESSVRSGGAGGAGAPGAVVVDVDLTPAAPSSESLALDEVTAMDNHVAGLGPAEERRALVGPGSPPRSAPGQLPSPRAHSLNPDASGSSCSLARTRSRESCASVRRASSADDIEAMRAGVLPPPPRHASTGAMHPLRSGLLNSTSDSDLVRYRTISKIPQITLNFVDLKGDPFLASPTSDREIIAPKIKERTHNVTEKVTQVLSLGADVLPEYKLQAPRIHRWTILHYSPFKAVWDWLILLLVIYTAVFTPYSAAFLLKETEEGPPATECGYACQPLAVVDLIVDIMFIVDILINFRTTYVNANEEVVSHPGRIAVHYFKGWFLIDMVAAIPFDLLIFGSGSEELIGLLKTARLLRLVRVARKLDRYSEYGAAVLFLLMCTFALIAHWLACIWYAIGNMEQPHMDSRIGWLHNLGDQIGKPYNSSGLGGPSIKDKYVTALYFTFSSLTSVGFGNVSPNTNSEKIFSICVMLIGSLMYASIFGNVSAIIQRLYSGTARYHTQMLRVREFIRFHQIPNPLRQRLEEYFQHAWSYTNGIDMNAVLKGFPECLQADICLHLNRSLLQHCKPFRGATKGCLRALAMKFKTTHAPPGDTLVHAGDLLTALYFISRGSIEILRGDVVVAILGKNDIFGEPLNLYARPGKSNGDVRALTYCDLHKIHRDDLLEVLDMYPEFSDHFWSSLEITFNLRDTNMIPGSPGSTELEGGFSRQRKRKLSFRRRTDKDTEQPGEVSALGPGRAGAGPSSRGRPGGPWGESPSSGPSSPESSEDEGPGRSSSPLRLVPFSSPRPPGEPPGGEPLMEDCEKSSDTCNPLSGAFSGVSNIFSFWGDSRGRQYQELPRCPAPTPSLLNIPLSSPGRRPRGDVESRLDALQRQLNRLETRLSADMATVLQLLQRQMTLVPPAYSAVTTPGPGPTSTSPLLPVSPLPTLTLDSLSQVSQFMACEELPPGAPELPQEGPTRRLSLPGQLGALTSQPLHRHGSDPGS

| SMILES | hERG current change (%, negative = inhibition) at 1uM |
| --- | --- |
| COc1cc2c(cc1OC)CN(S(=O)(=O)c1cccs1)CC2 | -2.79% |
| Cc1ccccc1C(=O)c1c[nH]c(C(=O)NCCc2ccccn2)c1 | 2.15% |
| O=C(Nc1ccccc1Br)c1cccc2ccccc12 | 8.49% |
| CCOC(=O)c1sc(N)c(C(=O)OC)c1C | 2.01% |
| O=S(=O)(/C(=C/c1ccc(C(F)(F)F)cc1)c1nc2ccccc2[nH]1)c1ccccc1 | 5.64% |
| COc1ccccc1N1C(=O)C2C3C=CC(CC3)C2C1=O (stereo not shown) | 12.2% |
| COC(=O)c1ccc(/C=C2\N=C(SC)SC2=O)cc1 | 9.49% |
| CCCS(=O)(=O)Nc1c(C(=O)O)[nH]c2ccccc12 | 12.4% |
| CC(C)CN(C(=O)CSc1nnc(C2CC2)n1-c1ccccc1)C1CCS(=O)(=O)C1 (stereo not shown) | -0.968% |
| c1ccc(SSc2ccccn2)nc1 | 8.37% |
| O=C(CC1SC(N2CCCCC2)=NC1=O)Nc1ccc(C(=O)NCCc2ccc(F)cc2)cc1 (stereo not shown) | 11.6% |
| Cc1cc(NS(=O)(=O)c2ccc(NC(=O)CSc3nc4sc(C)c(C)c4c(=O)[nH]3)cc2)no1 | -1.81% |
| CCOC(=O)c1ccc(NC(=O)CSc2nc3c(c(=O)n2-c2ccccc2OC)SCC3)cc1 | 13.7% |
| C/C(=N\Nc1nc(C)c(C)s1)c1ccc([N+](=O)[O-])cc1 | 7.95% |
| CC(Oc1ccc(Cl)cc1Cl)C(=O)N(Cc1ccco1)C1CCS(=O)(=O)C1 (stereo not shown) | 0.185% |
| Cc1ccc(S(=O)(=O)NCC(=O)N(CC(=O)NCC2CCCO2)Cc2ccccc2Cl)cc1 (stereo not shown) | 9.29% |
| CC(=O)c1cn(-c2ccc(Cl)cc2)c(=O)n(Cc2ccc(F)cc2)c1=O | 9.43% |
| Cc1ccc(C2c3[nH]c4ccccc4c3C[C@H]3C(=O)N(c4ccccc4C(=O)N4CCC[C@@H]4C(=O)O)C(=O)N23)cc1 (stereo partly shown) | 5.33% |
| CCCCOc1ccc(/C=N/NC(=O)c2nnn(-c3nonc3N)c2CN2CCCCCC2)cc1 | 12.6% |
| COC(C(=O)Nc1ccc(Cl)cc1C)c1ccccc1 (stereo not shown) | 6.66% |
| CC(C)NC(=O)COc1coc(CN2CCN(Cc3ccccc3)CC2)cc1=O | 16.6% |
| CCNC(=O)NC(=O)CSc1ccc(S(=O)(=O)N2CCCCC2)cn1 | 9.19% |
| Cc1cc(C)c(S(=O)(=O)Nn2cnnc2)c(C)c1 | 15.5% |
| CCOC(=O)N1CCN(C(=O)CS(=O)Cc2nc(-c3ccc(OC)c(OC)c3)oc2C)CC1 (stereo not shown) | 10.5% |
| CC(C)(C)c1ccc(OC(=O)c2cccnc2)cc1 | 3.97% |
| Cc1nc2ccccc2c(=O)n1CCCn1ccnc1 | 0.288% |
| COc1ccc(NC(=O)CS(=O)CC(=O)NCC2OCCc3ccccc32)cc1 (stereo not shown) | 7.41% |
| COC(=O)C1=C(C)N(c2cccc(OC)c2)C(=O)/C1=C\c1ccco1 | -2.59% |

| SMILES | hERG current change (%, negative = inhibition) at 1uM |
| --- | --- |
| COC(=O)/C=C/C(=O)NCc1ccco1 | 12.6% |
| Cc1cc(NCc2ccco2)n2ncnc2n1 | 10.4% |
| CCOc1ccc(CNC(c2ccccc2)c2ccccc2)cc1.Cl | 11.9% |
| CC1c2nc3ccccc3n2C(CC(=O)NCCCN2CCOCC2)C(=O)N1Cc1ccccc1 (stereo not shown) | 2.29% |
| COc1cc(CNc2ccc(N3CCOCC3)cc2)ccc1OCC(=O)NC(C)(C)C | 14.9% |
| COC(=O)C(C(=O)OC)=C(/C=C/C=C/N(C)C)N(C)C | 5.52% |
| COC(=O)COc1ccc(S(=O)(=O)Nc2ccc3c(c2)OCO3)cc1Cl | 8.17% |
| COc1ccccc1C(=O)NNC(=O)c1sccc1-n1cccc1 | 14.5% |
| CCn1c(CSc2nc(C)cc(C)n2)nnc1SCC(=O)Nc1cccc2ccccc12 | 7.19% |
| CCCS(=O)(=O)c1nc(S(=O)(=O)c2ccc(C)cc2)c(N2CCC(O)CC2)s1 | 17% |
| COC(=O)C1=C(C)N(CCCC(=O)O)C(=O)NC1c1cccc(Cl)c1Cl (stereo not shown) | 5.52% |
| CC(=O)NC1(C(F)(F)F)NC(=O)N(CCc2ccccc2)C1=O (stereo not shown) | 20.5% |
| O=c1cc(CN2CCN(Cc3ccccc3)CC2)c2cc(O)ccc2o1 | -39.4% |
| CC(C)Oc1ccc(S(=O)(=O)N2CCOCC2)cc1NC(=O)c1ccc(N2CCCC2=O)cc1 | 7.24% |
| CCOC(=O)C1CCN(c2cc(C)nc3ccc(OC)cc23)CC1 | -56.1% |
| O=[N+]([O-])c1ccc(S(=O)(=O)NCCS(=O)(=O)N2CCN(c3ccccc3)CC2)cc1 | 13.9% |
| Cc1cc(C)n(CC(=O)NC2C(=O)N3C(C(=O)O)=C(CSc4nnc(C)s4)CSC23)n1 (stereo not shown) | 10.9% |
| COc1ccc(-n2c(SCC(=O)Nc3nccs3)nnc2-c2ccoc2C)cc1 | -79.4% |
| COCCOC(=O)C1=C(C)NC2=C(C(=O)CC(c3cccs3)C2)C1c1ccsc1 (stereo not shown) | 7.93% |
| COCC(=O)N(C)CC1CCCN(CCc2ccccc2OC)C1 (stereo not shown) | 13% |
| Nc1sc(-c2ccccc2)n[n+]1Cc1cccc2cccnc12.[Br-] | -19.8% |
| O=C(Nc1ccc(Cl)c(C(F)(F)F)c1)[C@@H]1CC=C[C@@H]2CCN(Cc3ccccc3)C(=O)[C@@H]21 | -3.52% |
| Nn1c(SCC(=O)Nc2c(Cl)cccc2Cl)nncc1=O | 6.57% |
| COc1ccc(C)cc1NC(=O)CC(O)(C(F)(F)F)C(F)(F)F | 9.6% |
| O=C1CC(N2CCN(c3ccccn3)CC2)C(=O)N1CC(c1ccccc1)c1ccccc1 (stereo not shown) | -9.72% |
| N#CC1=C(N)C2=CCCC[C@H]2[C@H](c2ccc(Br)cc2)C1(C#N)C#N | 1.85% |
| Oc1nc(Nc2ccc(Cl)cc2Cl)sc1/C=C1\C=Nc2ccccc21 | 6.56% |
